# From the supplement of paper PMC10369915
# The list shows a part of the results. Rule as the data show it: active = 3.2 or more and inactive = the rest. Only a few entries rise above the background.
# Biological target: SHP2 C-SH2 domain E139D
# Assay: enrichment score (SH2-bound / input frequency) (ratio); bacterial display of known human phosphotyrosine sites (pTyr-Var adds point mutants) read by sequencing; higher = stronger binding; tyrosines were phosphorylated by kinases first
# Details: peptide library: pTyr-Var
# 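Also: displayed peptides selected on beads carrying the immobilized SH2 domain, with library peptides lacking any tyrosine serving as negative controls.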
row,Binder,enrichment score
1,KNAEKYAEEDR [HSPA9_Y568],inactive: 0.565
2,KNAEKYAEEDW [HSPA9_Y568_R573W],inactive: 0.662
3,QDEHGYISRCF [HSPB1_Y133],inactive: 0.654
4,RDEHGYISRCF [HSPB1_Y133_Q128R],inactive: 0.741
5,CFTRKYTLPPG [HSPB1_Y142],inactive: 0.676
6,CFTRQYTLPPG [HSPB1_Y142_K141Q],inactive: 0.543
7,SSWPGYVRPLP [HSPB1_Y54],inactive: 1.01
8,RVDRDYVLKST [HTATIP2_Y111_A116T],inactive: 0.855
9,RVFRDYVLKSA [HTATIP2_Y111_D108Y_YF],inactive: 0.866
10,SVDRDYVLKSA [HTATIP2_Y111_R106S],inactive: 0.579
11,LMLVLYGRIFL [HTR1A_Y215_R220L],inactive: 1.34
12,LLREWYMIISR [HUWE1_Y4066],active: 3.7
13,LLREWYMIFSR [HUWE1_Y4066_I4069F],inactive: 3.18
14,LLQEWYMIISR [HUWE1_Y4066_R4063Q],inactive: 2.79
15,ILKPDYQPLAV [HYDIN_Y1072_I1077V],inactive: 1.2
16,AMGAVYQAAAL [HYOU1_Y421],inactive: 1.02
17,AMGPVYQAAAL [HYOU1_Y421_A419P],inactive: 0.723
18,NNDLCYWVLEL [IARS1_Y434_P437L],inactive: 0.812
19,AKVKPYINGTS [IBTK_Y1064_V1065I],inactive: 1.18

# Biological target: SHP2 C-SH2 domain wild-type
# Assay: as above
# Details: peptide library: pTyr-Var
row,Binder,enrichment score
1,KNAEKYAEEDR [HSPA9_Y568],inactive: 0.645
2,KNAEKYAEEDW [HSPA9_Y568_R573W],inactive: 0.782
3,QDEHGYISRCF [HSPB1_Y133],inactive: 0.738
4,RDEHGYISRCF [HSPB1_Y133_Q128R],inactive: 0.744
5,CFTRKYTLPPG [HSPB1_Y142],inactive: 0.567
6,CFTRQYTLPPG [HSPB1_Y142_K141Q],inactive: 0.611
7,SSWPGYVRPLP [HSPB1_Y54],inactive: 0.761
8,RVDRDYVLKST [HTATIP2_Y111_A116T],inactive: 0.845
9,RVFRDYVLKSA [HTATIP2_Y111_D108Y_YF],inactive: 0.809
10,SVDRDYVLKSA [HTATIP2_Y111_R106S],inactive: 0.543
11,LMLVLYGRIFL [HTR1A_Y215_R220L],inactive: 1.4
12,LLREWYMIISR [HUWE1_Y4066],active: 3.75
13,LLREWYMIFSR [HUWE1_Y4066_I4069F],active: 3.34
14,LLQEWYMIISR [HUWE1_Y4066_R4063Q],inactive: 2.87
15,ILKPDYQPLAV [HYDIN_Y1072_I1077V],inactive: 0.801
16,AMGAVYQAAAL [HYOU1_Y421],inactive: 0.854
17,AMGPVYQAAAL [HYOU1_Y421_A419P],inactive: 0.787
18,NNDLCYWVLEL [IARS1_Y434_P437L],inactive: 1.46
19,AKVKPYINGTS [IBTK_Y1064_V1065I],inactive: 0.775

# Biological target: SHP2 N-SH2 domain L43F
# Assay: as above
# Details: peptide library: pTyr-Var
row,Binder,enrichment score
1,KNAEKYAEEDR [HSPA9_Y568],inactive: 0.436
2,KNAEKYAEEDW [HSPA9_Y568_R573W],inactive: 0.663
3,QDEHGYISRCF [HSPB1_Y133],inactive: 0.53
4,RDEHGYISRCF [HSPB1_Y133_Q128R],inactive: 0.82
5,CFTRKYTLPPG [HSPB1_Y142],inactive: 0.625
6,CFTRQYTLPPG [HSPB1_Y142_K141Q],inactive: 0.57
7,SSWPGYVRPLP [HSPB1_Y54],inactive: 0.874
8,RVDRDYVLKST [HTATIP2_Y111_A116T],inactive: 0.584
9,RVFRDYVLKSA [HTATIP2_Y111_D108Y_YF],inactive: 0.612
10,SVDRDYVLKSA [HTATIP2_Y111_R106S],inactive: 0.633
11,LMLVLYGRIFL [HTR1A_Y215_R220L],inactive: 1.41
12,LLREWYMIISR [HUWE1_Y4066],active: 3.58
13,LLREWYMIFSR [HUWE1_Y4066_I4069F],inactive: 2.98
14,LLQEWYMIISR [HUWE1_Y4066_R4063Q],inactive: 2.48
15,ILKPDYQPLAV [HYDIN_Y1072_I1077V],inactive: 1.15
16,AMGAVYQAAAL [HYOU1_Y421],inactive: 0.695
17,AMGPVYQAAAL [HYOU1_Y421_A419P],inactive: 0.77
18,NNDLCYWVLEL [IARS1_Y434_P437L],inactive: 1.16
19,AKVKPYINGTS [IBTK_Y1064_V1065I],inactive: 1.25

# Biological target: SHP2 N-SH2 domain T42A
# Assay: as above
# Details: peptide library: pTyr-Var
row,Binder,enrichment score
1,KNAEKYAEEDR [HSPA9_Y568],inactive: 0.471
2,KNAEKYAEEDW [HSPA9_Y568_R573W],inactive: 0.453
3,QDEHGYISRCF [HSPB1_Y133],inactive: 0.932
4,RDEHGYISRCF [HSPB1_Y133_Q128R],inactive: 0.696
5,CFTRKYTLPPG [HSPB1_Y142],inactive: 0.598
6,CFTRQYTLPPG [HSPB1_Y142_K141Q],inactive: 0.563
7,SSWPGYVRPLP [HSPB1_Y54],inactive: 0.918
8,RVDRDYVLKST [HTATIP2_Y111_A116T],inactive: 0.878
9,RVFRDYVLKSA [HTATIP2_Y111_D108Y_YF],inactive: 0.992
10,SVDRDYVLKSA [HTATIP2_Y111_R106S],inactive: 0.568
11,LMLVLYGRIFL [HTR1A_Y215_R220L],inactive: 0.917
12,LLREWYMIISR [HUWE1_Y4066],inactive: 3.05
13,LLREWYMIFSR [HUWE1_Y4066_I4069F],inactive: 2.73
14,LLQEWYMIISR [HUWE1_Y4066_R4063Q],inactive: 2.73
15,ILKPDYQPLAV [HYDIN_Y1072_I1077V],inactive: 0.804
16,AMGAVYQAAAL [HYOU1_Y421],inactive: 0.705
17,AMGPVYQAAAL [HYOU1_Y421_A419P],inactive: 0.646
18,NNDLCYWVLEL [IARS1_Y434_P437L],inactive: 1.07
19,AKVKPYINGTS [IBTK_Y1064_V1065I],inactive: 0.72

# Biological target: SHP2 N-SH2 domain T52S
# Assay: as above
# Details: peptide library: pTyr-Var
row,Binder,enrichment score
1,KNAEKYAEEDR [HSPA9_Y568],inactive: 0.491
2,KNAEKYAEEDW [HSPA9_Y568_R573W],inactive: 0.621
3,QDEHGYISRCF [HSPB1_Y133],inactive: 0.663
4,RDEHGYISRCF [HSPB1_Y133_Q128R],inactive: 0.51
5,CFTRKYTLPPG [HSPB1_Y142],inactive: 0.491
6,CFTRQYTLPPG [HSPB1_Y142_K141Q],inactive: 0.456
7,SSWPGYVRPLP [HSPB1_Y54],inactive: 0.829
8,RVDRDYVLKST [HTATIP2_Y111_A116T],inactive: 1.05
9,RVFRDYVLKSA [HTATIP2_Y111_D108Y_YF],inactive: 0.966
10,SVDRDYVLKSA [HTATIP2_Y111_R106S],inactive: 0.565
11,LMLVLYGRIFL [HTR1A_Y215_R220L],inactive: 1.08
12,LLREWYMIISR [HUWE1_Y4066],active: 3.66
13,LLREWYMIFSR [HUWE1_Y4066_I4069F],inactive: 3.02
14,LLQEWYMIISR [HUWE1_Y4066_R4063Q],inactive: 2.42
15,ILKPDYQPLAV [HYDIN_Y1072_I1077V],inactive: 0.957
16,AMGAVYQAAAL [HYOU1_Y421],inactive: 1.05
17,AMGPVYQAAAL [HYOU1_Y421_A419P],inactive: 0.705
18,NNDLCYWVLEL [IARS1_Y434_P437L],inactive: 0.879
19,AKVKPYINGTS [IBTK_Y1064_V1065I],inactive: 1.5

# Biological target: SHP2 N-SH2 domain wild-type
# Assay: as above
# Details: peptide library: pTyr-Var
row,Binder,enrichment score
1,KNAEKYAEEDR [HSPA9_Y568],inactive: 0.745
2,KNAEKYAEEDW [HSPA9_Y568_R573W],inactive: 0.798
3,QDEHGYISRCF [HSPB1_Y133],inactive: 0.987
4,RDEHGYISRCF [HSPB1_Y133_Q128R],inactive: 0.887
5,CFTRKYTLPPG [HSPB1_Y142],inactive: 0.75
6,CFTRQYTLPPG [HSPB1_Y142_K141Q],inactive: 0.839
7,SSWPGYVRPLP [HSPB1_Y54],inactive: 0.754
8,RVDRDYVLKST [HTATIP2_Y111_A116T],inactive: 0.875
9,RVFRDYVLKSA [HTATIP2_Y111_D108Y_YF],inactive: 0.846
10,SVDRDYVLKSA [HTATIP2_Y111_R106S],inactive: 0.697
11,LMLVLYGRIFL [HTR1A_Y215_R220L],inactive: 1.76
12,LLREWYMIISR [HUWE1_Y4066],active: 3.77
13,LLREWYMIFSR [HUWE1_Y4066_I4069F],inactive: 3.08
14,LLQEWYMIISR [HUWE1_Y4066_R4063Q],inactive: 3.05
15,ILKPDYQPLAV [HYDIN_Y1072_I1077V],inactive: 0.863
16,AMGAVYQAAAL [HYOU1_Y421],inactive: 0.872
17,AMGPVYQAAAL [HYOU1_Y421_A419P],inactive: 0.759
18,NNDLCYWVLEL [IARS1_Y434_P437L],inactive: 2.22
19,AKVKPYINGTS [IBTK_Y1064_V1065I],inactive: 1.15
